According to publication PMC4336329 (PLoS ONE, 2015):
Among all 310,000 compounds or so, about 14,000 (4.5%) showed an effect of 50% or more. Effects have a minus sign here. The list shows a part of the results.

The molecules below were run against human ether-à-go-go-related gene (hERG) potassium channel (human, UniProt Q12809) (assay: primary screen, population patch clamp on CHO cells stably expressing hERG).
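Also: peak tail current of the secondary pulse compared with the same well before compound.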

human ether-à-go-go-related gene (hERG) potassium channel, sequence (Q12809 whole entry, looked up): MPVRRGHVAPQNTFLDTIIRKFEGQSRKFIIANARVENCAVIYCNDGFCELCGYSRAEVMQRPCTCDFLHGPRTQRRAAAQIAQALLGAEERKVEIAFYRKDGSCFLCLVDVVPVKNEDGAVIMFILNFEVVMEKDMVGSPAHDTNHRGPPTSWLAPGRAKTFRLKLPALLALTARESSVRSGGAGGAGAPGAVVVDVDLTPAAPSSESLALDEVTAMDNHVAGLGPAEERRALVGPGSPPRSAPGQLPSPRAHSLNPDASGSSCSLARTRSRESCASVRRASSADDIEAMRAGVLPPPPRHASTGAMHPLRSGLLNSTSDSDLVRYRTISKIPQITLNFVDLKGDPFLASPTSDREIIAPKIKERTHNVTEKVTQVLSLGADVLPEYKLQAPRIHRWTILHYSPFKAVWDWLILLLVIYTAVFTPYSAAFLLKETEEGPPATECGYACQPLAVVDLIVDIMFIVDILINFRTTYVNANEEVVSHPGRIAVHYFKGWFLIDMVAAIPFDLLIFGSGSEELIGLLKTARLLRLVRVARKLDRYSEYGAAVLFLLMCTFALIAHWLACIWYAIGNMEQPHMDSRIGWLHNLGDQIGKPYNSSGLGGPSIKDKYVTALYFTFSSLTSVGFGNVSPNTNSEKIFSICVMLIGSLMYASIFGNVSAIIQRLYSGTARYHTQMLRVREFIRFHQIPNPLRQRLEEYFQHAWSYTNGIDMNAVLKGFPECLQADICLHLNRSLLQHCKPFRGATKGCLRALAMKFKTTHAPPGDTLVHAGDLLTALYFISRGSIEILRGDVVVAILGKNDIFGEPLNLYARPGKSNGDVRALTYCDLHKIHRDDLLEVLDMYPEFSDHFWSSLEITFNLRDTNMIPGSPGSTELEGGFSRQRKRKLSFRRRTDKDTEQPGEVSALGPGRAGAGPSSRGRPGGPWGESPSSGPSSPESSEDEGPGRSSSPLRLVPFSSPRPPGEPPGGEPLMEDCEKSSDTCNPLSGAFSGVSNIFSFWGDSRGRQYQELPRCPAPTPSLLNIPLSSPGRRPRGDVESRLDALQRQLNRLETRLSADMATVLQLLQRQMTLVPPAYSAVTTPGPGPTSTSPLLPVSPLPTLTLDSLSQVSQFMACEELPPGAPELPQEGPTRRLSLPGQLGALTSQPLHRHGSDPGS

Row | Structure (SMILES) | hERG current change (%, negative = inhibition) at 10uM [%]
1 | CCN1C(=O)c2cccc3c(NC(=O)C(C)(C)C)ccc1c23 | 1.71
2 | CC1(c2ccccc2)NC(=O)N(CC(=O)Nc2ccccc2C(=O)NC2CC2)C1=O (centres unmarked) | -22.5
3 | CC(C)(C)c1ccc(C(=O)Nc2ccc(C(=O)N3CCOCC3)cc2)cc1 | -20.6
4 | C/C=C/CSc1nc2c(c(=O)[nH]c(=O)n2C)n1CCC | -24.6
5 | O=C(NCCN1CCCCCC1)c1ccc(N2CCCC2=O)cc1 | -11
6 | COCCCNC(=O)Cn1nnc(-c2ccc(NC(=O)c3ccccc3OC)cc2)n1 | 6.89
7 | COc1ccc(Br)cc1S(=O)(=O)N(CC(=O)N1CCN(C)CC1)c1ccccc1 | -22.6
8 | COc1c(C)cc(C(=O)C2CCCN(Cc3cccc(O)c3)C2)cc1C (centres unmarked) | -23.9
9 | CN(CCc1cnn(C)c1)Cc1nc(Cc2ccccc2)no1 | 11.7
10 | Cc1cc(C)n(/N=C/c2cccc([N+](=O)[O-])c2)c(=O)c1 | 1.68
11 | CC(C)Oc1ccc(C(=O)N/N=C/c2ccc(-c3ccc(S(=O)(=O)Nc4ncccn4)cc3)o2)cc1 | 9.83
12 | CC1=C(C(=O)NC2CCCCC2C)C2(CCC(C)CC2)OC1=O (centres unmarked) | -12.4
13 | CCCCOc1ccc(C(=O)C(CN2CCOCC2)c2ccccc2)cc1 (centres unmarked) | -1.42
14 | O=C(CCCN1C(=O)c2ccccc2C1=O)N1CCC(c2ccccc2)C1 (centres unmarked) | -58.6
15 | O=C(NCC1CCCO1)c1cc2c([nH]c3ccccc32)c(-c2ccc(F)cc2)n1 (centres unmarked) | -3.16
16 | COc1c(C)cc(Br)cc1C(=O)Nc1cccc(-c2nc3ncccc3o2)c1 | -7.52
17 | Cc1cccc(-c2noc(C(C)NC(=O)c3ccco3)n2)c1 (centres unmarked) | -11.3
18 | Cc1ccc(-n2c(SCC(N)=O)nnc2-c2ccccn2)cc1C | 8.79
19 | COc1cccc(C(O)c2cnc(C(C)C)n2C)c1 (centres unmarked) | 6.71
20 | COc1cc(C)c(S(=O)(=O)N2CCOCC2)cc1C(C)C | -10.2
21 | CCOC(=O)c1c(NC(=O)CSc2nc3ccccc3c(=O)n2-c2ccc(F)cc2)sc(C(C)=O)c1C | 12.5
22 | Cc1ccc(S(=O)(=O)CCSc2nccn2C)cc1 | 0.605

Row | Structure (SMILES) | hERG current change (%, negative = inhibition) at 10uM [%]
23 | CCOCCCNS(=O)(=O)c1ccc(Br)cc1 | 18
24 | O=C(COC(=O)c1cc(=O)[nH]c(=O)[nH]1)Nc1cccc(S(=O)(=O)N2CCCCC2)c1 | 16.7
25 | O=C(O)c1ccc(Nc2cccc(F)c2)c([N+](=O)[O-])c1 | 17.7
26 | CSc1nc2c(C)c(C)c(C)c(C)c2[nH]1 | 5.03
27 | Cn1c(=O)c2cn(-c3ccc4c(c3)OCCO4)cc2n(C)c1=O | 11.3
28 | CCOC(=O)C1=C(C)NC(=O)C(C(N)=O)C12CCCC2 (centres unmarked) | 30.1
29 | CC(=O)N1CCN(C(=O)c2cccc(S(=O)(=O)Nc3ccc(C)cc3)c2)CC1 | 23.4
30 | CCCOc1ccccc1OCC(=O)Nc1ccc(S(=O)(=O)N2CCCC2)cc1 | -16.2
31 | O=C(/C=C/c1ccc(OC(F)F)cc1)Nc1cccc(S(=O)(=O)NC2=NCCCCC2)c1 | -39.2
32 | Cc1cc(C)cc(NC(=O)CN2CCC(C(=O)c3ccccc3)CC2)c1 | -48.6
33 | C=CCn1c(CCc2ccccc2)nnc1SCC(=O)OC | 11.9
34 | Cc1cc(C)c(S(=O)(=O)N2CC=C(c3ccccc3)CC2)c(C)c1 | 7.52
35 | COc1ccc(CNC(=O)Cc2nn(C)c(=O)c3ccccc23)cc1 | -14.2
36 | COc1ccc(C(=O)N2CCN(Cc3nc(CC4CC4)no3)CC2)cc1 | -30.7
37 | CNC(=O)C1CC(=O)N(CCc2ccc(OC)c(OC)c2)C(=Nc2ccc(F)cc2)S1 (centres unmarked) | -6.4
38 | CNC(=O)N(O)C1N(/N=C/c2cc(Br)ccc2O)C(=S)SC1(C)C (centres unmarked) | 16.5
39 | N#CCC(=O)Nc1ccc(C(=O)OCC(=O)NNC(=O)c2ccc(Cl)cc2)cc1 | 1.74
40 | CC(=O)C1=C(C)NC(SCC(=O)c2ccccc2)=C(C#N)C1c1ccco1 (centres unmarked) | 3.34
41 | Cc1cccc(C)c1N1C(=O)C2ON(c3ccccc3)C(c3ccncc3)C2C1=O (centres unmarked) | -24.6
42 | COc1ccc(-c2[nH]c(-c3ccc(F)cc3)nc2SCC(=O)NC2CCCC2)cc1 | -15.7
43 | CCOC(=O)N1CCN(C(=O)COc2ccccc2OC)CC1 | 15.2
44 | Cc1ccc(-c2csc3nc[nH]c(=O)c23)c(C)c1 | -6.91
